Some of the results follow. Shown are side measurements of this screen, not its main read-out; they come without a call.
What was measured:
Assay in all cases: Primary Screen for Target Class Profiling of Small Molecule Inhibitors of Methyltransferases
[1] = biological target: Glycine N-methyltransferase (Homo sapiens) (UniProt Q14749); conditions: purified enzyme, MTase-Glo SAH luminescence; measured here: GNMT inhibition; at 40 µM; stronger effect = lower value
Method in brief: (§1)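 Each enzyme was reacted with SAM and its substrate, with compounds tested once at 40 uM; SAH formed was read by MTase-Glo luminescence.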

[2] = biological target: Guanidinoacetate N-methyltransferase (Homo sapiens) (UniProt Q14353); conditions: purified enzyme, MTase-Glo SAH luminescence; measured here: GAMT inhibition; at 40 µM; stronger effect = lower value
Method in brief: as §1

[3] = biological target: Histamine N-methyltransferase (Homo sapiens) (UniProt P50135); conditions: purified enzyme, MTase-Glo SAH luminescence; measured here: HNMT inhibition; at 40 µM; stronger effect = lower value
Method in brief: as §1

[4] = biological target: Nicotinamide N-methyltransferase (Homo sapiens) (UniProt P40261); conditions: purified enzyme, MTase-Glo SAH luminescence; measured here: NNMT inhibition; at 40 µM; stronger effect = lower value
Method in brief: as §1

[5] = biological target: Phenylethanolamine N-methyltransferase (Homo sapiens) (UniProt P11086); conditions: purified enzyme, MTase-Glo SAH luminescence; measured here: PNMT inhibition; at 40 µM; stronger effect = lower value
Method in brief: as §1
On the % scale 0 is the no-effect control and ±100 the full control effect.

Compound	activity change, negative = inhibition [1]	activity change, negative = inhibition [2]	activity change, negative = inhibition [3]	activity change, negative = inhibition [4]	activity change, negative = inhibition [5]
O=C(Nc1ccc(-c2ccc(Cl)c(Cl)c2)cc1)C1=C(O)c2ccccc2S(=O)(=O)N1	-20.1%	4.46%	3.04%	-25.5%	0.824%
O=C(NCc1ccccc1)[C@@H]1Cc2nc[nH]c2CN1Cc1cccc(OC(F)(F)F)c1	-11.7%	-7.66%	-7.19%	-24.9%	-9.58%
CC1(C(=O)NC2CCCC2)Cn2c(nc3ccccc32)C(=O)N1CCc1ccc(Cl)cc1 (stereo not given)	2.05%	0%	0.452%	1.34%	-0.11%
N[C@@H](COP(=O)(O)O)C(=O)O	11.4%	14.8%	15%	-2.02%	0.949%
O=C1N[C@H](CC(=O)N2CCc3ccccc3C2)C(=O)Nc2ccccc21	-1.73%	-7.17%	1.44%	0.118%	1.42%
COCCN1C(=O)CC[C@]2(C(=O)N3CCCCCC3)CCCC[C@@H]12	-0.483%	1.33%	0.919%	1.45%	1.15%
CC1=C2CC(=O)C(C)CC/C=C(\C)CC2OC1=O (stereo not given)	-3.8%	-5.78%	4.5%	-13.7%	-11.2%
CCOC(=O)c1cc2n(n1)CC(C)(C(=O)NCc1ccccc1)N(Cc1cccc(C)c1C)C2=O (stereo not given)	-4.1%	0.454%	-1.02%	8.37%	-2.42%
COc1ccc2c(c1)OCC(CNC(=O)c1scc3c1OCCO3)C2 (stereo not given)	-3.9%	1.02%	-0.145%	-10.2%	-5.41%
CC(C)CCNC(=O)C1c2c(n(C)c3ccccc23)SCC(=O)N1C1CCCCCC1 (stereo not given)	-5.58%	3.62%	-3.44%	-5.76%	1.17%
COC1C(O)C(OC2CCC3(C)C(CCC45CCC6C7(COC(=O)C7)OC4(O)C6(C)CCC35)C2)OC(C)C1OC1OC(CO)C(OC2OC(CO)C(O)C(O)C2O)C(O)C1O (stereo not given)	3.4%	2.81%	7.55%	-9.95%	-3.97%
O=C(NCc1cccnc1)C1CCN(C2CCN(Cc3ccc4c(c3)CCO4)CC2)CC1	-6.71%	-10.3%	-18.9%	-18.1%	-15.5%
Cc1ccc(CNC(=O)CSc2nnc3n(CC(C)C)c(=O)c4cc(F)ccc4n23)cc1	1.54%	0.811%	8.45%	-6.97%	3.11%
COc1ccc(CC(=O)N[C@H]2[C@H](O)[C@H](O)C[C@@H]2c2cccnc2)cc1	0.322%	-0.807%	2.46%	2.39%	-8.48%
Cc1cc(C)c(S(=O)(=O)NCCn2c(-c3ccccc3)nc3ccccc32)cc1C	-10.6%	0%	6.89%	-3.17%	3.67%

Source: PubChem BioAssay AID1745853 (National Center for Advancing Translational Sciences (NCATS), 2022)
